“And” between values parts separate entries of the source, which are not always exact repeats. Equal values may be shown once.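 96-well plates; 48 h exposure; 5 concentrations. Endpoints by linear interpolation between flanking doses. Not reached: highest tested concentration assigned. GI50: concentration for 50% inhibition of growth. TGI is the concentration that stops growth completely.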
What follows are molecules tested on NCI-H322M lung (assay: DTP human tumour cell line panel, 48 h).
CC(C)(CO)N1C(=O)c2ccccc2C1(O)c1ccc(Cl)cc1 (configuration not stated) was tested, and the TGI was over 100 µM.
In the case of O=c1nc2c(c(-c3cccc(Cl)c3)[nH]1)COC/C2=C\c1cccc(Cl)c1, the TGI is reported as over 100 µM.
O=C(O)c1cc(S(=O)(=O)N=NC=C2c3ccccc3N(O)c3ccccc32)ccc1O gave a TGI of over 100 µM.
In the case of CC(=O)CC(=O)c1cc2c(=O)oc(C)cc2oc1=O, the TGI is reported as over 37.5 µM.
Work on O=C1N[C@@H]2c3c(csc3Br)C(=O)[C@@H]2O1 yielded a TGI of over 100 µM.
OCc1ccccc1C1CSCSC1 gave a TGI of over 100 µM.
In the case of CC(=O)OCCc1cccnc1/C=N/O, the TGI is reported as over 100 µM.
In the case of O=C(O)CCCc1ccc(N(CCCl)CCCl)cc1, the TGI is reported as 84.2 µM and 574 µM and 710 µM.
With CCOC(=O)c1c(SCCN2CCCC2)n(-c2ccccc2)c(=S)n(-c2ccccc2)c1=O the TGI was 32.2 µM.
COC(=O)CCCC(=O)C(=Nc1c(Cl)cccc1Cl)NNc1ccc(Cl)cc1 was tested, and the TGI was over 100 µM.
CC(C)/C(Cl)=N\OC(=O)NNc1ccccc1 gave a TGI of over 100 µM.
O=C(OCc1ccccc1)OOC(=O)OCc1ccccc1 gave a TGI of over 100 µM.
Cc1cc2cccc(Cl)c2nc1C(=O)c1ccccc1 was tested, and the TGI was over 100 µM.
O=[n+]1c(CBr)c(CBr)n([O-])c2ccccc21 showed a GI50 of 15.8 µM and a TGI of 30.9 µM.
In the case of CC(C)(C)C1=NC(S)NC(CCC(=O)Nc2ccccc2[N+](=O)[O-])=C1 (configuration not stated), the TGI is reported as over 100 µM.
With N#CSCc1cccc(Nc2cc(=O)[nH]c(=O)[nH]2)c1 the TGI was over 100 µM.
Molecule COC(=O)C(CC(=O)c1cc2c(cc1I)OCO2)Cc1cc(OC)c(OC)c(OC)c1I (configuration not stated) has a TGI of over 100 µM.
With COc1ccc(CNc2nc3ccc(C(F)(F)F)cc3nc2-c2ccccc2)cc1OC the TGI was over 100 µM.
COc1ccccc1NC(=O)c1ccc(/C=C/C(=O)c2nccn2C)cc1 was tested, and the GI50 was 0.479 µM and the TGI was 1.2 µM.
For O=C(O)/C=C/C(=O)Nc1ncn[nH]1, the TGI was over 100 µM.
For COC(=O)[C@@H](C)C[C@H](Cc1ccccc1)NC(=O)c1nc([C@@H](C[C@H](C(C)C)N(C)C(=O)[C@@H](NC(=O)[C@H]2CCCN2C)C(C)C)OC(C)=O)sc1C, the GI50 was 0.00889 µM and the TGI was over 25 µM.
With CC(C)CCNC(=O)c1ccc(CNC(=O)/C=C/c2ccc(OCc3ccccc3)cc2)cc1 the TGI was over 100 µM.
O=[N+]([O-])C(=C(Sc1ccccc1)Sc1ccccc1)C(Cl)=C(Cl)Cl was tested, and the TGI was 23.2 µM.
Work on OCCNCO yielded a TGI of over 100 µM.
C[C@@H]1C[C@H](O)[C@]2(O)O[C@@H]3C[C@@]4(C=O)[C@@H](CC=C5[C@@H]4CC[C@]4(C)[C@@H](C6=CC(=O)OC6)CC[C@]54O)C[C@H]3O[C@@H]2O1 showed a TGI of 0.27 µM.
In the case of O=C(O)Cc1c[nH]c2ccc(F)cc12, the TGI is reported as over 100 µM.
CN(C)c1ccc(/C=C2\C[N+](C)(C)C/C(=C\c3ccc(N(C)C)cc3)C2=O)cc1 showed a TGI of over 100 µM.
O=C1CSC(N2CCN(c3cccc(Cl)c3)CC2)=N1 was tested, and the GI50 was over 100 µM and the TGI was over 100 µM.
Cc1nc2cc(C(F)(F)F)ccc2[nH]c1=O showed a TGI of over 100 µM.
With O=C(N/N=C/c1cccc(O)c1O)N/N=C/c1cccc(O)c1O the TGI was 79.5 µM.
Cc1cc(C)nc(NS(=O)(=O)c2ccc(NC(=O)c3cccc4c(=O)c5ccccc5[nH]c34)cc2)n1 showed a TGI of 43 µM.
Molecule C[C@]12CC/C(=N\O)C=C1CC[C@@H]1[C@@H]2CC[C@]2(C)C(=N/O)/C(=C/c3cccnc3)C[C@@H]12 has a TGI of 82.7 µM.
Molecule CC1=CCCC(OC(N)=O)C1 (configuration not stated) has a TGI of over 100 µM.
CCOc1ccc(N=C/C=C(\Cl)c2ccc3ccccc3c2)cc1 gave a TGI of 32 µM.
For O=C1c2ccccc2-c2c1c1cc3c(cc1c(=O)n2CCCCl)OCO3, the GI50 was 15.1 µM and the TGI was 68 µM.
Work on O=C1/C(=C/c2ccccc2)CN(C(=O)Oc2ccc(Cl)cc2)C/C1=C\c1ccccc1 yielded a TGI of over 81.6 µM.
COC(=O)c1c2c(c(C)[n+]([O-])c1C)C(=O)C=CC2=O was tested, and the GI50 was 1.68 µM and the TGI was 3.08 µM.
Work on COc1cc([C@@H]2c3cc4c(cc3C[C@H]3COC(=O)[C@@H]32)OCO4)cc(OC)c1OC yielded a GI50 of 0.00374 µM and a TGI of over 50 µM.
Molecule CCCCCCCCCCCCCCC1OC(=O)c2ccccc21 (configuration not stated) has a TGI of over 100 µM.
Molecule C1CN2N3CCCC23C1 (configuration not stated) has a TGI of over 100 µM.
Molecule C=C1CC(OC)(C(O)C(=O)N[C@H]2OCO[C@H]3C2O[C@H](C[C@@H](COC)OC)C(C)(C)C3OC)O[C@H](C)[C@@H]1C (some centres not stated) has a TGI of under 0.00482 µM.
Work on CCCCCCCCCCCCOC1C(CNCC2OC3OC(C)(C)OC3C2NC(=O)Nc2ccc(C(=O)OCC)cc2)OC2OC(C)(C)OC21 (configuration not stated) yielded a GI50 of 8.73 µM and a TGI of 22 µM.
CC1=C(CCCOC(=O)NCCCl)C2=C(C)C3(CC3)[C@@](C)(O)C(=O)C2=C1 was tested, and the GI50 was 2.48 µM and the TGI was 8.58 µM.
For CCC[C@H](C)[C@H]1NC(=O)[C@@H](NC(=O)[C@@H](CC(C)C)N(C)C(=O)C2CCCN2C(=O)[C@H](C)O)[C@@H](C)OC(=O)[C@H](CC(C)C)N(C)C(=O)[C@@H]2CCCN2C(=O)[C@H](CC(C)C)NC(=O)[C@@H](C)C(=O)[C@H](C(C)C)OC(=O)C[C@@H]1O (some centres not stated), the TGI was 0.0231 µM.
COc1ccc(NC2Oc3cc4c(cc3C(c3cc(OC)c(OC)c(OC)c3)C2C)OCO4)cc1 (configuration not stated) was tested, and the TGI was 7.05 µM.
In the case of OCc1c(-c2cccc3ccccc23)sc(-c2cccc3ccccc23)c1CO, the TGI is reported as 28.6 µM.
O=C1CC(c2ccc([N+](=O)[O-])cc2)C2(C(=O)NC(=S)NC2=O)C(c2ccc([N+](=O)[O-])cc2)C1 (configuration not stated) gave a TGI of 35.8 µM.
Cc1nc2nnc(C)n2c2c1C(=O)Nc1ccccc1N2 gave a TGI of over 100 µM.
CCOC(=O)C1CC(O)C(=O)N1C (configuration not stated) was tested, and the TGI was over 100 µM.
In the case of COc1cc2c(cc1O)[C@H](Cc1ccc(Oc3cc(C[C@H]4c5cc(OC)c(OC)cc5CCN4C)ccc3OC)cc1)NCC2, the TGI is reported as 31.2 µM.
CCOC(=O)c1cnc2[nH]ccn2c1=O showed a TGI of over 10 µM.
Molecule OC(c1cccc(C(F)(F)F)c1)c1cnccc1NC1CCCCCC1 (configuration not stated) has a GI50 of 2.02 µM and a TGI of 5.29 µM.

Reference: PubChem BioAssay (NCI)
